# Laboratory results taken from the supplement of paper PMC12217912.
# This is one part of the list. The full chains were built here from the parent and the listed change. Values near 0.05 are background.
# B1: TEV protease; numbered along this chain (parent)
# chain: MGESLFKGPRDYNPISSSICHLTNESDGHTTSLYGIGFGPFIITNKHLFRRNNGTLVVQSLHGVFKVKDTTTLQQHLVDGRDMIIIRMPKDFPPFPQKLKFREPQREERICLVTTNFQTKSMSSMVSDTSCTFPSGDGIFWKHWIQTKDGQCGSPLVSTRDGFIVGIHSASNFTNTNNYFTSVPKNFMELLTNQEAQQWVSGWRLNADSVLWGGHKVFMVKPEEPFQPVKEATQL
# Variants of: B1
# Experiment: raw area under fraction-flipped curve 0-4 h after induction (AUC4h, not background-subtracted), DNA-recorder readout of cleavage of the substrate (dimensionless); higher = more cleavage of the substrate by the protease variant
# Conditions: temperature: 34 °C; time window: 0-4 h after rhamnose induction
# Experimental: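 In vivo DNA recorder in E. coli TOP10(DE3) ΔrhaA at 34 °C. Each TEVp single-site mutant (parent TEVp 0) is paired with a single-site variant of the 7-mer TEVs (canonical ENLYFQ|S). The substrate sits between flexible linkers in a Bxb1-sfGFP-TEVs-SsrA fusion, so cleavage stabilises Bxb1 and speeds flipping of a recombination array, read by NGS. The value is the raw area under the fraction-flipped curve over 0-4 h after rhamnose induction (AUC4h), with ≥20 reads per time point. It is not background-subtracted; inactive controls average about 0.047.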
# 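Also: Bxb1 expression induced with 0.2% (w/v) L-rhamnose at OD600 near 0.5, cultures sampled hourly, flipped fraction per protease–substrate barcode pair counted by paired-end Illumina sequencing.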
Variant,area with substrate ENLYCQS,area with substrate ENLYDQS,area with substrate ENLYEQS,area with substrate ENLYHQS,area with substrate ENLYIQS,area with substrate ENLYKQS,area with substrate ENLYLQS,area with substrate ENLYMQS,area with substrate ENLYNQS,area with substrate ENLYPQS,area with substrate ENLYRQS,area with substrate ENLYSQS,area with substrate ENLYTQS,area with substrate ENLYYQS,area with substrate ENLYGQS,area with substrate ENLYQQS,area with substrate ENLYVQS,area with substrate ENLYWQS
W199P,0.07,0.0663,0.0808,0.0558,0.0787,0.0659,0.064,0.062,0.0618,0.0644,0.0733,0.0558,0.06,0.0702,,,,
W203V,0.0779,0.0638,0.0616,0.0564,0.0627,0.0578,0.0767,,0.0641,0.0533,0.0588,0.0376,,0.0548,0.0455,0.0597,0.0848,0.0614
R204V,0.112,0.0793,0.0555,0.0708,,0.0481,0.0738,0.0915,0.0657,0.0983,0.0493,0.0845,0.0776,0.0778,0.0626,0.0541,0.157,0.0959
L205H,0.0801,,,0.0847,0.0519,0.0466,,0.0536,,,,,,0.0671,0.0887,,,0.0654
L211M,0.0876,0.075,0.0791,0.0706,0.0793,0.0496,0.0573,,0.083,0.0616,0.0564,0.0826,0.06,,0.07,0.0547,0.14,
K221L,0.132,0.0532,0.058,0.0526,0.0713,0.0293,0.0617,0.0723,0.052,0.0783,0.0596,,0.0454,0.0626,0.0818,,0.0922,0.0752
K221S,0.062,,0.061,0.0601,,0.0552,,0.0757,0.0623,0.0614,0.063,,0.0691,,0.0576,,0.121,
E223Y,0.0776,0.0729,0.0837,0.0643,0.122,0.0393,,0.0769,0.068,,0.0505,0.0659,,0.0768,0.0602,0.0671,,0.083
P225K,0.0949,,0.0531,0.0726,,0.0643,,0.0608,0.054,0.0677,0.0707,0.0705,0.0699,,0.0757,,0.0959,
K230S,0.0983,0.0543,0.0555,0.0679,0.124,0.066,0.0768,0.0915,0.0601,0.0776,0.0744,0.0608,0.0735,,0.0695,0.0619,0.0839,0.0976
E231V,0.0907,0.0753,0.0901,0.0905,0.0989,0.0369,,0.0655,0.0784,,0.0688,,0.0884,0.0682,,0.0478,0.125,0.0882
T233Q,0.102,0.071,0.0628,0.0795,0.151,,,,0.087,0.0739,0.069,0.0484,0.0838,,0.0775,0.072,,0.0877
Q234S,0.0971,0.0595,0.0654,0.0858,0.109,0.064,,0.0814,0.0747,0.0778,,0.0674,0.0792,,0.0637,0.0621,0.115,0.0749
E3F,,0.0611,0.0565,0.0668,,0.0686,,0.0828,,,,,0.0944,0.0677,0.0634,0.0707,0.149,
L5P,,0.0994,,0.0595,,,,,,0.0646,,,0.0575,,0.0651,,0.0643,
T23E,,0.103,0.0666,0.0649,0.111,0.0631,,0.0678,0.0727,0.0862,,0.0767,0.0843,0.0738,0.0616,0.0601,0.0907,0.0811
S26Q,,0.0675,0.076,0.0694,0.113,0.0343,,0.0922,0.058,0.0631,,,0.0616,,0.0663,,0.103,0.0799
S26R,,0.0607,0.0878,0.0602,0.0902,0.036,,0.0613,0.0572,0.045,0.0463,0.063,,0.0488,0.0544,0.0663,0.0717,0.0698
H29M,,0.0617,0.0726,0.061,0.143,0.0507,0.119,0.106,0.0635,0.076,0.0654,,0.0748,0.0594,,,0.188,0.0983
H29T,,0.0544,0.0636,0.0634,0.0814,,0.102,0.0875,,0.0917,0.07,,0.082,0.0667,0.0673,0.0667,0.111,
T31V,,0.0664,0.0664,0.0686,0.149,0.0738,,0.0925,0.0816,0.0673,0.0539,0.0788,0.0786,0.0628,0.066,0.0788,0.0824,0.0879
P40Q,,0.0662,0.0662,0.107,0.133,0.0381,0.107,0.0958,0.0746,,,0.0717,0.0768,,0.0661,0.0646,0.162,0.0868
F41G,,0.0421,0.0546,0.0489,0.0842,,0.0616,0.0505,0.0597,0.0811,0.0381,,,0.0435,0.0461,0.0606,,0.0688
F49D,,0.057,0.0564,0.0398,0.0591,0.0668,0.066,0.052,0.063,0.0625,0.0667,0.0493,0.0433,,0.05,0.0486,0.0719,0.0537
N53D,,0.0594,,0.0636,0.136,0.0596,0.0912,0.104,0.0742,0.0724,0.0575,0.0577,,0.0766,0.0727,0.0667,0.0942,0.0719
